Results taken from PMC9228641 (Journal of medicinal chemistry, 2021).

Test system: NS3/4A protease (WT GT-1a, D168A variant, and GT-3a)
Settings: compared to the (S)-epimer 30

COc1ccc2nc(O[C@@H]3C[C@H]4C(=O)N[C@]5(C(=O)NS(=O)(=O)C6(C)CC6)C[C@H]5C=CCCCCC[C@H](NC(=O)O[C@H](C)C(C)C)C(=O)N4C3)c(C(F)(F)F)nc2c1 (stereo in doubt) [Compound 31, (R)-3-Methylbutan-2-yl ((2R,6S,13aS,14aR,16aS,Z)-2-((6-methoxy-3-(trifluoromethyl)quinoxalin-2-yl)oxy)-14a-(((1-methylcyclopropyl)sulfonyl)carbamoyl)-5,16-dioxo-1,2,3,5,6,7,8,9,10,11,13a,14,14a,15,16,16a-hexadecahydrocyclopropa[e]pyrrolo[1,2-a][1,4]diazacyclopentadecin-6-yl)carbamate]
fold improvement in Ki values: 2 fold
